# The list shows a part of the results.
# What was measured:
# HSkMC = human skeletal muscle cells; test: cytotoxicity call (relative viability < 0.9); conditions: 10 µM
# HepG2 = test: cytotoxicity call (relative viability < 0.9); conditions: 10 µM
# S. aureus RN4220 = test: growth inhibition call (relative growth <= 0.2); conditions: 50 µM
Compound,cytotoxicity call (HSkMC),cytotoxicity call (HepG2),growth inhibition call (S. aureus RN4220)
COc1ccc(NC(=O)N(C)C[C@@H]2OCCCC[C@H](C)Oc3ccc(NC(=O)Cc4ccccc4)cc3C(=O)N([C@@H](C)CO)C[C@@H]2C)cc1,inactive,inactive,inactive
Cn1cc(S(=O)(=O)N2CCN(c3ccccc3F)CC2)c(=O)n(C)c1=O,inactive,inactive,inactive
C[C@@H]1CN([C@@H](C)CO)C(=O)Cc2cc(NC(=O)Nc3ccc(C(F)(F)F)cc3)ccc2O[C@@H]1CN(C)Cc1ccncc1,inactive,active,inactive
COc1ccc(NC(=O)Nc2ccc3c(c2)C(=O)N([C@@H](C)CO)C[C@@H](C)[C@@H](CN(C)S(C)(=O)=O)O3)cc1,inactive,inactive,inactive
O=C(C[C@@H]1C=C[C@@H](NC(=O)c2ccc(F)cc2)[C@H](CO)O1)NCc1ccncn1,inactive,inactive,inactive
Cc1noc(C)c1NC(=O)Nc1cccc2c1O[C@@H](CN(C)C(=O)Nc1ccc(C(F)(F)F)cc1)[C@@H](C)CN([C@H](C)CO)C2=O,inactive,inactive,inactive
CC(=O)n1cc([C@@H]2C=C(C(=O)N3CCN(C)CC3)O[C@H](OCc3ccc(CO)cc3)C2)c2ccccc21,inactive,inactive,inactive
COCC(=O)N(C)C[C@@H]1Oc2cc(C#CC(C)(C)O)ccc2S(=O)(=O)N([C@H](C)CO)C[C@H]1C,inactive,inactive,inactive
O=C(C[C@H]1CC[C@H]2[C@@H](COC[C@@H](O)CN2C(=O)c2ccccc2F)O1)N1CCN(c2ccccc2)CC1,inactive,inactive,inactive
CCC[C@@H]1C[C@@H](C(=O)N[C@H]([C@H]2O[C@H](SC)[C@H](O)[C@@H](O)[C@H]2O)[C@@H](C)Cl)N(C)C1,inactive,inactive,active
CC1=C(C(=O)O)N2C(=O)C(NC(=O)C(N)c3ccccc3)C2SC1 (centres undefined),inactive,inactive,inactive
CNc1cc(=O)n(C)c(=O)n1C,inactive,inactive,inactive
Cc1noc(C)c1NC(=O)Nc1ccc2c(c1)C(=O)N([C@H](C)CO)C[C@H](C)[C@H](CN(C)CC1CC1)OCCCC[C@@H](C)O2,inactive,inactive,inactive
C[C@H](CO)N1C[C@H](C)[C@@H](CN(C)Cc2ccc(-c3ccccc3)cc2)Oc2ccc(NC(=O)Cc3cn(C)c4ccccc34)cc2C1=O,inactive,inactive,inactive
Oc1ccc(Cl)c2c1CCC2,inactive,inactive,inactive
Cc1cc(=S)oc2ccccc12,inactive,inactive,inactive
C[C@H]1CN([C@@H](C)CO)C(=O)CCCn2cc(nn2)CO[C@H]1CN(C)S(=O)(=O)c1ccc(-n2cccn2)cc1,inactive,inactive,inactive
C[C@H](CO)N1C[C@H](C)[C@H](CN(C)C(=O)CCC(F)(F)F)OCCCC[C@H](C)Oc2ccc(NS(=O)(=O)c3cccs3)cc2C1=O,inactive,inactive,inactive
CC(C)NC(=O)Nc1ccc2c(c1)C(=O)N([C@@H](C)CO)C[C@H](C)[C@@H](CN(C)Cc1ccc(C(F)(F)F)cc1)OCCCC[C@@H](C)O2,inactive,active,inactive
COCCN1C[C@H]2COC[C@@H](C(=O)N3CCCO3)[C@H]2C1,inactive,inactive,inactive

Compound,cytotoxicity call (HSkMC),cytotoxicity call (HepG2),growth inhibition call (S. aureus RN4220)
Cn1[nH]c(=O)cc1C(F)(F)F,inactive,inactive,inactive
CC(C)NC(=O)N(C)C[C@@H]1Oc2ccc(NC(=O)NC3CCCCC3)cc2CC(=O)N([C@@H](C)CO)C[C@H]1C,inactive,inactive,inactive
C[C@@H]1CCCCO[C@@H](CN(C)Cc2ccc(Cl)c(Cl)c2)[C@@H](C)CN([C@@H](C)CO)C(=O)c2cc(NC(=O)Nc3ccc(C(F)(F)F)cc3)ccc2O1,inactive,inactive,inactive
O=c1nc[nH]c2n[nH]cc12,inactive,inactive,inactive
CCCC(=O)Nc1ccc2c(c1)C(=O)N(C)[C@H]1CC[C@@H](CC(=O)NCCN3CCCCC3)O[C@H]1CO2,inactive,inactive,inactive
C[C@H]1CN([C@@H](C)CO)C(=O)c2cc(NC(=O)CCN3CCOCC3)ccc2O[C@@H]1CN(C)Cc1ccc(C(=O)O)cc1,inactive,inactive,inactive
COc1cccc(C#Cc2cnc3c(c2)C(=O)N([C@@H](C)CO)C[C@H](C)[C@@H](CN(C)C(=O)C2CCC2)O3)c1,inactive,inactive,inactive
CN(C)CCCNC(=O)C[C@H]1C=C[C@@H](NC(=O)Cc2cccnc2)[C@@H](CO)O1,inactive,inactive,inactive
O=C(C[C@H]1CC[C@H](NS(=O)(=O)c2ccccc2)[C@H](CO)O1)NCc1ccncn1,inactive,inactive,inactive
COc1cccc(C#Cc2cnc3c(c2)C(=O)N([C@@H](C)CO)C[C@H](C)[C@H](CN(C)C(=O)C2CCOCC2)O3)c1,inactive,inactive,inactive
CO[C@@H]1CN(C)C(=O)c2ccc(NS(C)(=O)=O)cc2OC[C@H](C)N(C(=O)CN(C)C)C[C@@H]1C,inactive,inactive,inactive
C[C@@H]1CN([C@@H](C)CO)C(=O)c2cc(/C=C/c3ccccc3)cnc2O[C@@H]1CN(C)S(=O)(=O)c1cn(C)cn1,inactive,inactive,inactive
CC(C)N=c1cc2n(-c3ccc(Cl)cc3)c3ccccc3nc-2cc1Nc1ccc(Cl)cc1,inactive,active,inactive
O=C(O)C=CC=Cc1ccc2c(c1)OCO2,inactive,inactive,inactive
C[C@@H]1CN([C@H](C)CO)C(=O)c2cccc(NC(=O)Nc3cccc4ccccc34)c2O[C@@H]1CN(C)C(=O)Nc1ccc(F)cc1,active,inactive,inactive
C[C@@H]1CN([C@H](C)CO)C(=O)c2c(c3ccccc3n2C)-c2ccccc2CO[C@H]1CN(C)Cc1ccccc1,active,active,inactive
CC#CC1(O)CCC2C3CCC4=CC(=O)CCC4=C3C(c3ccc(N(C)C)cc3)CC21C (centres undefined),inactive,inactive,inactive
C[C@@H]1CN([C@@H](C)CO)C(=O)c2c(c3ccccc3n2C)-c2ccccc2CO[C@H]1CN(C)C(=O)N[C@H](C)c1ccccc1,inactive,inactive,inactive
COc1ccc(S(=O)(=O)Nc2ccc3c(c2)[C@@H]2C[C@H](CC(=O)NCC4CC4)O[C@@H](CO)[C@@H]2O3)cc1,inactive,inactive,inactive
Cc1noc(C)c1NC(=O)N(C)C[C@@H]1Oc2c(NS(C)(=O)=O)cccc2C(=O)N([C@H](C)CO)C[C@H]1C,inactive,inactive,inactive

Compound,cytotoxicity call (HSkMC),cytotoxicity call (HepG2),growth inhibition call (S. aureus RN4220)
C[C@@H]1CCCCO[C@@H](CN(C)C(=O)Nc2ccccc2)[C@@H](C)CN([C@@H](C)CO)C(=O)c2cc(NC(=O)CCC(F)(F)F)ccc2O1,inactive,inactive,inactive
C[C@@H]1CN([C@H](C)CO)C(=O)Cc2cc(NS(=O)(=O)c3ccccc3)ccc2O[C@@H]1CN(C)Cc1ccc(-c2ccccc2)cc1,inactive,inactive,inactive
C[C@@H]1CN([C@@H](C)CO)S(=O)(=O)c2ccc(C#Cc3ccccc3F)cc2O[C@@H]1CN(C)C(=O)Cc1ccncc1,inactive,inactive,inactive
Cc1noc(C)c1S(=O)(=O)N(C)C[C@H]1Oc2c(NS(=O)(=O)c3cn(C)cn3)cccc2C(=O)N([C@H](C)CO)C[C@@H]1C,inactive,inactive,inactive
Nc1ccn(C2CSC(CO)O2)c(=O)n1 (centres undefined),inactive,inactive,inactive
COc1ccc2nc3cc(Cl)ccc3c(Nc3cc(CN4CCCC4)c(O)c(CN4CCCC4)c3)c2n1.O=P(O)(O)O.O=P(O)(O)O.O=P(O)(O)O.O=P(O)(O)O,inactive,active,inactive
COc1ccc(CN(C)C[C@H]2OCCCC[C@@H](C)Oc3ccc(NS(=O)(=O)c4cccs4)cc3C(=O)N([C@@H](C)CO)C[C@H]2C)cc1,inactive,inactive,inactive
C[C@@H]1CN([C@@H](C)CO)C(=O)c2cccc(NC(=O)CCCCCC(=O)Nc3ccccc3N)c2O[C@@H]1CN(C)C(=O)Nc1ccc(C(F)(F)F)cc1,inactive,inactive,inactive
NNC(=O)c1cc(=S)nc[nH]1,inactive,inactive,inactive
COc1ccc(NC(=O)Nc2ccc3c(c2)CC(=O)N([C@H](C)CO)C[C@H](C)[C@H](CN(C)Cc2ccc(C(=O)Nc4ccccc4N)cc2)O3)cc1,inactive,inactive,inactive
Cc1noc(C)c1NC(=O)N(C)C[C@H]1Oc2c(NS(=O)(=O)c3ccccc3)cccc2C(=O)N([C@@H](C)CO)C[C@@H]1C,inactive,inactive,inactive
COc1ccc(S(=O)(=O)N(C)C[C@@H]2OCCCC[C@@H](C)Oc3ccc(NC(=O)c4ccccc4)cc3C(=O)N([C@H](C)CO)C[C@H]2C)cc1,inactive,inactive,inactive
CN(C)CCCNC(=O)C[C@H]1CC[C@H]2[C@@H](COC[C@@H](O)CN2S(=O)(=O)c2ccc(Cl)cc2)O1,inactive,inactive,inactive
Cc1ccc(S(=O)(=O)N(C)C[C@H]2OCCCC[C@@H](C)Oc3ccc(NC(=O)Nc4ccc(F)cc4)cc3C(=O)N([C@H](C)CO)C[C@H]2C)cc1,inactive,inactive,inactive
CC1CCC(C(C)C)C(O)C1 (centres undefined),inactive,inactive,inactive
C[C@@H]1CN([C@@H](C)CO)C(=O)CCCn2cc(nn2)CO[C@@H]1CN(C)C(=O)c1ccc(N2CCN(C)CC2)cc1,inactive,inactive,inactive
C[C@H]1CN([C@@H](C)CO)C(=O)c2cc(NC(=O)Cc3cn(C)c4ccccc34)ccc2O[C@@H]1CN(C)Cc1ccc(C(=O)Nc2ccccc2N)cc1,active,inactive,inactive
Cn1c(=O)[nH]c(=O)c2c1nc(N1CCN(CCO)CC1)n2CC(=O)c1ccccc1,inactive,inactive,inactive
